{"source": "PubChem BioAssay AID588855", "about": "(National Center for Advancing Translational Sciences (NCATS), 2011)", "note": "Among all 410,000 compounds or so, about 5,000 (1.2%) were called active. Inconclusive results, whose numbers are uncertain, are shown with a selection of clear calls. Calls follow the shape of the dose curve; as a rule, active = well fitted inhibition curve with a large enough effect; inconclusive = small, poorly fitted or top-dose-only effect; inactive = no such curve, though single readings can be large or run the other way. Potencies beside an inconclusive call are fits to weak or partial responses and may not hold up. % is scaled to controls: 0 for no effect and ±100 for the full control effect; potency is read from the fitted curve at half-maximal effect; tags tell the direction and shape of the fitted curve."}
{"assay": "qHTS for Inhibitors of TGF-b; also: nearly all actives have a fitted effect of over 65% in size", "details": "HepG2 CAGA-GFP TGF-b/SMAD3 reporter, GFP fluorescence, 18 h, TGF-beta stimulated, 500 pg/mL final; series mostly up to 46.1 µM; activity, negative = inhibition: at the top concentration", "outline": "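HEPG2 CAGA-GFP, 1000 cells/well; 2 h settle, 37 C; cpd via pin tool; TGF-b 500 pg/mL final; 18 h, 37 C; GFP imaging ex488/em500-530; %Activity normalised to -TGF-b and +DMSO controls; CRC fit, curve class.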"}
{"smiles": "O=C(NC12CC3CC(CC(C3)C1)C2)N1CCN(c2ccccn2)CC1", "Potency": "inconclusive: 35.5 µM [inhibitor, partial curve, poor fit]"}
{"smiles": "C(=C\\c1ccccc1)/CN1CCN(C(c2nnnn2-c2ccc3c(c2)OCCO3)C2CC2)CC1", "note": "(configuration not stated)", "Potency": "inconclusive: 35.5 µM [inhibitor, single point]"}
{"smiles": "COc1c(C(=O)NCCSC(C)(C)C)ccc2ccccc12", "activity, negative = inhibition": "inactive: 9.53%"}
{"smiles": "C(=C\\c1ccccn1)/c1ccccn1", "activity, negative = inhibition": "inactive: -18.4%"}
{"smiles": "Cc1cccc(NC(=O)CSc2nc(=O)n(Cc3cccnc3)c3c2CCC3)c1", "Potency": "active: 17.8 µM"}
{"smiles": "CCCCNC(=S)N(C)/N=C/c1c(C)[nH]c2ccccc12", "Potency": "inconclusive: 35.5 µM [inhibitor, single point]"}
{"smiles": "COc1ccc2oc(C(=O)OCC(=O)N3CCN(S(=O)(=O)c4ccc(C)cc4)CC3)c(C)c2c1", "activity, negative = inhibition": "inactive: -8.43%"}
{"smiles": "O=S(=O)(c1cccc(-c2cn3ccccc3n2)c1)N1CCCC1", "Potency": "inconclusive: 25.1 µM [inhibitor, single point]"}
{"smiles": "C=CCNC(=S)N/N=C/c1cn(C)c2ccccc12", "Potency": "inconclusive: 5.01 µM [inhibitor, partial curve, poor fit]"}
{"smiles": "CC1=Nc2ccccc2N=C(NC(=O)c2ccccc2)C1c1ccc(Cl)cc1", "note": "(configuration not stated)", "Potency": "inconclusive: 35.5 µM [inhibitor, single point]"}
{"smiles": "Cc1onc(-c2ccccc2Cl)c1C(=O)N1CCC(Cc2ccccc2)CC1", "Potency": "inconclusive: 35.5 µM [inhibitor, single point]"}
{"smiles": "CCOc1ccc(NC(=O)Cn2nnc(-c3ccccc3NC(=O)CC)n2)cc1", "activity, negative = inhibition": "inactive: -9.71%"}
{"smiles": "Cc1c(OCc2ccccc2)c(=O)ccn1Cc1ccc(F)cc1", "Potency": "inconclusive: 22.4 µM [inhibitor, single point]"}
{"smiles": "CC1CN(C(=O)CCC(=O)NCc2ccccn2)c2ccccc2O1", "note": "(configuration not stated)", "activity, negative = inhibition": "inactive: -6.96%"}
{"smiles": "O=C(NCc1ccccn1)C(=O)N/N=C/c1ccccc1O", "activity, negative = inhibition": "inactive: -11.3%"}
{"smiles": "Cc1ccccc1OC1(C)CCN(Cc2ccc(-c3ccccn3)cc2)C1", "note": "(configuration not stated)", "activity, negative = inhibition": "inactive: -30.3%"}
{"smiles": "O=[N+]([O-])c1ccc(-c2nc(Nc3ccc(O)cc3)c3ccccc3n2)cc1", "Potency": "inconclusive: 35.5 µM [inhibitor, partial curve, poor fit]"}
{"smiles": "CCc1nn(CC(=O)N2CCN(c3cccc(C)c3C)CC2)c(=O)c2cc3sccc3n12", "Potency": "inconclusive: 10 µM [inhibitor, partial curve, poor fit]"}
{"smiles": "Cc1cc(C)c(S(=O)(=O)Oc2ccccc2[N+](=O)[O-])c(C)c1", "Potency": "inconclusive: 0.891 µM [inhibitor, partial curve]"}
{"smiles": "COc1ccccc1N1CCN(S(=O)(=O)c2ccc3c(c2)NC(=O)C(C)S3)CC1", "note": "(configuration not stated)", "Potency": "inconclusive: 17.8 µM [inhibitor, single point]"}
{"smiles": "COc1ccccc1NC(=O)CN(c1ccc(C23CC4CC(CC(C4)C2)C3)cc1)S(C)(=O)=O", "Potency": "inconclusive: 11.2 µM [inhibitor, partial curve, poor fit]"}
{"smiles": "Cc1ccc(O)c(-c2n[nH]c3c2C(c2ccccc2F)N(Cc2ccco2)C3=O)c1", "note": "(configuration not stated)", "Potency": "inconclusive: 35.5 µM [inhibitor, partial curve, poor fit]"}
{"smiles": "CCC(=O)N1CCc2cc(S(=O)(=O)NC(CC(C)C)C(=O)NCc3ccc(C)cc3)ccc21", "note": "(configuration not stated)", "activity, negative = inhibition": "inactive: 7.41%"}
{"smiles": "Nc1ccc(C(=O)Nc2ccc3nc(-c4cccnc4)[nH]c3c2)cc1", "Potency": "inconclusive: 0.562 µM [inhibitor, full curve, poor fit]"}
{"smiles": "CC(CCc1ccc(O)cc1)NCCC(c1ccccc1)c1ccccc1", "note": "(configuration not stated)", "Potency": "inconclusive: 35.5 µM [inhibitor, single point]"}
{"smiles": "O=C(COC(=O)Cc1n[nH]c(=O)c2ccccc12)NNC(=O)c1ccc(Cl)cc1", "Potency": "inconclusive: 0.562 µM [inhibitor, full curve, poor fit]"}
{"smiles": "COc1cc(Cl)c(C)cc1NC(=O)c1cc2c(s1)-c1c(C)cccc1OC2", "activity, negative = inhibition": "inactive: -19.7%"}
{"smiles": "O=C(N/N=C/c1ccccc1Br)c1ccc(CSc2cccc3cccnc23)cc1", "Potency": "inconclusive: 5.62 µM [inhibitor, partial curve, poor fit]"}
{"smiles": "Clc1ccc(Nc2ccc3ccccc3n2)cc1", "Potency": "inconclusive: 35.5 µM [inhibitor, single point]"}
{"smiles": "CN(C)CCOC1(Cc2ccc(F)cc2)CCC(C(C)(C)C)CC1", "note": "(configuration not stated)", "Potency": "inconclusive: 15.8 µM [inhibitor, single point]"}
{"smiles": "C[C@@]12C(=O)N(c3ccc(Br)cc3)C(=O)N1[C@@H]1c3ccccc3OC[C@@H]1[C@H]2c1ccccc1", "activity, negative = inhibition": "inactive: -1.71%"}
{"smiles": "CCOc1ccc(NC(=O)Cn2c(=O)oc3cc(S(=O)(=O)N4CCC(C)CC4)ccc32)cc1", "Potency": "inconclusive: 35.5 µM [inhibitor, single point]"}
{"smiles": "O=C(NCC1CCN(Cc2ccc(F)cc2)CC1)c1cc2ccc3cccnc3c2[nH]1", "Potency": "active: 15.8 µM"}
{"smiles": "COC(=O)C1CCN(C(=O)/C(C)=C\\c2ccccc2)CC1", "Potency": "inconclusive: 11.2 µM [inhibitor, partial curve]"}
{"smiles": "Cc1ccc(NS(=O)(=O)c2ccc(C(=O)NC3CCN(Cc4ccccc4)CC3)cc2)cc1", "Potency": "inconclusive: 14.1 µM [inhibitor, single point]"}
{"smiles": "CCc1cc2c(-c3ccccc3)cc(=O)oc2cc1OC(C)C(C)=O", "note": "(configuration not stated)", "Potency": "inconclusive: 35.5 µM [inhibitor, single point]"}
{"smiles": "O=C(CCNC(=O)c1ccc([N+](=O)[O-])cc1)NCCc1ccccc1", "activity, negative = inhibition": "inactive: 3.82%"}
{"smiles": "O=C(NC1CC1)C1=C[C@@H](c2ccccc2)C[C@@H](OCc2ccc(CO)cc2)O1", "Potency": "inconclusive: 35.5 µM [inhibitor, single point]"}
{"smiles": "CN(C(=O)c1cccc(NC(=O)Cc2ccc(NC(=O)C3CCCN(C(=O)C4CCCC4)C3)cc2)c1)C1CCCCC1", "note": "(configuration not stated)", "Potency": "inconclusive: 12.6 µM [inhibitor, partial curve, poor fit]"}
{"smiles": "O=[N+]([O-])c1ccc(C=Nc2ccc(Cl)cc2Cl)s1", "Potency": "active: 10 µM"}
{"smiles": "CC(C)(C)NCC(O)(c1ccc(Cl)cc1)c1ccc(Cl)cc1", "Potency": "inconclusive: 35.5 µM [inhibitor, single point]"}
{"smiles": "Cc1cc(=O)n2nc(N(C)CC(=O)NCc3ccc(Cl)cc3)sc2n1", "activity, negative = inhibition": "inactive: -0.362%"}
{"smiles": "CCOc1ccccc1/C=N/NC(=O)CSc1n[nH]c(=O)[nH]c1=O", "activity, negative = inhibition": "inactive: 5.93%"}
{"smiles": "O=C(c1ccc(=O)[nH]n1)N1CCN(S(=O)(=O)c2ccc(C(F)(F)F)cc2)CC1", "activity, negative = inhibition": "inactive: 12.3%"}
{"smiles": "CC(=O)n1cc([C@@H]2C=C(C(=O)NCc3ccccc3)O[C@H](OCc3ccc(CO)cc3)C2)c2ccccc21", "Potency": "inconclusive: 14.1 µM [inhibitor, single point]"}
{"smiles": "CCN(C(=O)CN1C(=O)NC2(CCC(C)CC2)C1=O)C1CCCCC1", "note": "(configuration not stated)", "activity, negative = inhibition": "inactive: 4.74%"}
{"smiles": "COc1cc(C(=O)NC2CCN(C)CC2)ccc1Nc1ncc2c(n1)N(Cc1ccccc1)CCC(=O)N2C", "activity, negative = inhibition": "inactive: 43.7%"}
{"smiles": "CN1c2ccsc2/C(=N/NC(=O)c2c(F)cccc2F)CS1(=O)=O", "activity, negative = inhibition": "inactive: -7.97%"}
{"smiles": "O=C(c1cc(F)cc(F)c1)N1CCC(c2nc(-c3ccc(S(=O)(=O)N4CCCC4)cc3)no2)CC1", "Potency": "inconclusive: 1.41 µM [inhibitor, partial curve, poor fit]"}
{"smiles": "c1ccc2c(Nc3ccc4c(c3)OCCO4)c3c(nc2c1)CCC3", "Potency": "inconclusive: 22.4 µM [inhibitor, single point]"}
{"smiles": "COc1ccccc1C(=O)NCc1n[nH]c(=S)n1Cc1ccccc1", "Potency": "inconclusive: 3.16 µM [inhibitor, single point]"}
{"smiles": "Cc1ccc(C2/C(=C(/O)c3ccc(Br)cc3)C(=O)C(=O)N2Cc2ccco2)o1", "note": "(configuration not stated)", "Potency": "inconclusive: 3.55 µM [inhibitor, single point]"}
{"smiles": "CCOc1cc(/C=N/NC(=O)c2cccs2)ccc1OC(=O)N1CCOCC1", "activity, negative = inhibition": "inactive: -5.35%"}
{"smiles": "COc1ccc(OC)c(CCNC(=O)c2cc3c(=O)n(C)c4ccccc4c3n2C)c1", "Potency": "inconclusive: 17.8 µM [inhibitor, single point]"}
{"smiles": "CCOc1ccc(NC(=O)CN2CCN(c3ccc(Cl)cc3)CC2)cc1", "Potency": "inconclusive: 17.8 µM [inhibitor, single point]"}
{"smiles": "Cc1ccc(-n2nc3c(=O)n(C(C)C(=O)NCc4ccc(Cl)cc4)nc(C)c3c2C)cc1", "note": "(configuration not stated)", "Potency": "inconclusive: 12.6 µM [inhibitor, single point]"}
{"smiles": "CN(C)C(=O)CN1CCN(Cc2nc(CC3CC3)no2)CC1", "Potency": "inconclusive: 1.78 µM [inhibitor, partial curve, poor fit]"}
{"smiles": "Cc1ccccc1-n1ncc2c(SCC(=O)NCc3cccs3)ncnc21", "Potency": "inconclusive: 28.2 µM [inhibitor, single point]"}
{"smiles": "CC(OC(=O)c1cc[n+]([O-])cc1)C(=O)Nc1ccc(Cl)cn1", "note": "(configuration not stated)", "Potency": "inconclusive: 5.62 µM [inhibitor, single point]"}
{"smiles": "COc1ccc(-c2cc(C(=O)N(C)Cc3ccc(F)cc3)c3ccccc3n2)cc1OC", "activity, negative = inhibition": "inactive: -0.864%"}
{"smiles": "CC(C)Nc1nc(-c2ccccc2CO)c2sccc2n1", "activity, negative = inhibition": "inactive: 2.38%"}
{"smiles": "CCOc1ccc2nc(NC(=O)Cn3c(C)csc3=O)sc2c1", "Potency": "inconclusive: 22.4 µM [inhibitor, single point]"}
{"smiles": "CCN(CC)C(=O)c1cccc(-c2csc(C(C)(O)c3cccc(OC)c3)n2)c1", "note": "(configuration not stated)", "Potency": "inconclusive: 14.1 µM [inhibitor, single point]"}
{"smiles": "CS(=O)(=O)c1ccccc1-c1nnc(NC(=O)C2=COCCO2)o1", "activity, negative = inhibition": "inactive: 7.57%"}
{"smiles": "Cc1nc2nc(C)c(CCC(=O)NC(C)c3ccc4c(c3)OCCO4)c(C)n2n1", "note": "(configuration not stated)", "activity, negative = inhibition": "inactive: -7.69%"}
{"smiles": "CCc1cc(-c2nc(N)ncc2-c2ccc(Br)cc2)c(O)cc1OC", "Potency": "inconclusive: 25.1 µM [inhibitor, single point]"}
{"smiles": "CCc1ccc(NC(=O)c2ccc(Cn3cc([N+](=O)[O-])cn3)cc2)cc1", "Potency": "inconclusive: 2.82 µM [inhibitor, full curve]"}
